Source: the supplement of paper PMC11417369
± gives the standard deviation of the averaged measurements. The list shows a part of the results.

What follows are sequences tested on PfAP2-I AP2 domain 3 (GST-tagged) (assay: gcPBM binding intensity (ln(normalized median fluorescence intensity)); higher = stronger DNA binding).
Method in brief: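 An Agilent 4 × 180k array of primer-extended double-stranded 36-bp intergenic genomic probes, with negative controls, was incubated for 1 h with GST-tagged P. falciparum DNA-binding domains expressed in E. coli. Alexa488 anti-GST antibody detected bound protein, scanned at 488 nm. Binding intensity is the highest Masliner-normalised natural-log median intensity across replicate spots of either probe orientation.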

Sequence | gcPBM binding intensity (ln)
AGGTGATTAATATATACACACATACATATATATATA [CACACA_site8913] | 9.15 ± 0.3
TAATAATAATTAAATTGTACATATAATATAATATAA [XGTACX_site8554] | 7.76 ± 0.33
ATATTATCATATTCGAGTACACGAAGTATTATTGCA [XGTACX_site6765] | 7.99 ± 0.52
AATAAAGTAATAACTACACACATTTATAAAAAAGTA [CACACA_site3753] | 7.63 ± 0.4
TATAAGCTTTCAATGTGTACATATTATTTTATTATT [XGTACX_site3988] | 7.93 ± 0.41
TCTTATAAACATGTATATATTAAAAAAAAAAAAAAA [TGCATGCA_negctrl_site86] | 8.01 ± 0.51
AACATATTGGATTTAGTGCACATATATATCATAATA | 11.5 ± 0.29
AAAAATTACCCTTGTGTACACATATATTATCTGTAT [CACACA_site4513] | 8.37 ± 0.5
ATATATATAGATCGAAGTACAGATAGAATGAAAATA [XGTACX_site2695] | 8.09 ± 0.65
TAAAAAAATTTTACAAGTACAAAAAAATGTAATAAA [XGTACX_site4829] | 7.91 ± 0.38
ACAAGAGAAAAAAATACACACAAGATAAAAATGTAT [CACACA_site607] | 7.75 ± 0.69
ATATATCATCATGTATGTACACACATACATATATTA [XGTACX_site2814] | 8.03 ± 0.5
TATGCTTTTACAATGTGTACTTATATTTTTCACAGG [XGTACX_site6201] | 8.205 ± 0.078
TAATTTTCAATAATTTGTACATAATTTTTATAAATT [XGTACX_site8133] | 7.49 ± 0.3
AACCATAAAAAGTGTACACATATAAAAAATATGGAA [CACACA_site4199] | 8.04 ± 0.71
TATATAAATTAACCAGTGCATTATTTGGAAATTATT | 11.1 ± 0.59
TTCTGACCAATGCTATAAAATAATACAAAAGAAAAA [GTGCAC_negctrl_site3] | 7.83 ± 0.35
TGAAGAGGAAACAAACAAAATGAATAATTAAAAAGG [CACACA_negctrl_site1601] | 7.88 ± 0.8
TATATCCACATTTTTAGTACTTAAAAATAAATAAAC [XGTACX_site3826] | 8.01 ± 0.34
TTTCTTCATTTTTTCACACATAAGAAAATATAATCA [CACACA_site4275] | 7.95 ± 0.44
AAGGAAAACAATAGGTGTACCAAACGTCCTAGGAAC [XGTACX_site5732] | 7.75 ± 0.77
AAAAAAGCAATATGATGTACATTTACTTTGTGAAAG [XGTACX_site4450] | 7.58 ± 0.63
TAAAAAAATAAAATTACACACATATATAAATATATA [CACACA_site2620] | 7.26 ± 0.34

Sequence | gcPBM binding intensity (ln)
AAATATTATAAAAAGGTGCATTTTTATTATATGAGT | 10.5 ± 0.35
CTAGGTATGCTTTAAACATGCAAAAATACAAATTAC [TGCATGCA_site239] | 7.97 ± 0.76
ATATATAAATATATTTGTACATATAATATGTATTAT [XGTACX_site8820] | 7.75 ± 0.47
AATTTAAAAAAAATCACACACAGAAAAAAAAAAAAA [CACACA_site2322] | 8.21 ± 0.9
ATATATGTTTTTATATGTACTTATAATGTGTGTATA [XGTACX_site5165] | 7.86 ± 0.092
GATAAATTAAAACACACACACATATATATATATATA [CACACA_site3962] | 9.44 ± 0.52
AAAAAAATAGTCTTCTTGCACTTTTTAATTTATTTT | 8.91 ± 0.36
TTATAATAAAATGAATATATATAATTTAAAATATTT [CACACA_negctrl_site1651] | 7.36 ± 0.55
AAAAAAAGTTATATTACACACTTTATTCGTTAACTT [CACACA_site3013] | 7.83 ± 0.67
ATATTTATGAAGTTCACACATATATATATATATATA [CACACA_site5954] | 9.59 ± 0.75
ACAACAATATTTGAATGTACTCTATTTTCGTTGTTC [XGTACX_site593] | 7.76 ± 0.52
ATACACACTCAAAAAAGTACTTAACTACATGAATTG [XGTACX_site6366] | 7.79 ± 0.55
CTCAAAGGAATATTCACACATAAATTATAGACTACA [CACACA_site6050] | 7.53 ± 0.45
TAATTATATTCACTTGCTATATAAATTATATATATT [CACACA_negctrl_site526] | 7.72 ± 0.4
GTATATATATATATATGCAAATGTATAAATCTACAT [CACACA_negctrl_site546] | 7.75 ± 0.56
AAGAAAAAAATATATGTTTATTTACTTTAATAATTT [TGCATGCA_negctrl_site168] | 7.36 ± 0.55
TATATATAAATATGCTGTACGTTTTAATACGTTAAG [XGTACX_site2378] | 7.86 ± 0.19
TGTGAATAAATAAGCACACATAAACCCATATATAAA [CACACA_site4103] | 8.18 ± 0.26
ATCTAAACAAATAATACACACAATAAAATAGGAAGA [CACACA_site4072] | 7.98 ± 0.78
TAATATTTACATATTACACACACGTATTATTAAATA [CACACA_site6340] | 7.8 ± 0.4
TATTTTTTAAAAATGGGTACACATAAATAAATAAAT [XGTACX_site7643] | 8.32 ± 0.54
AAGAAAAATTTAAACTGTACTTGTTTTCCAATGAAC [XGTACX_site4443] | 8.12 ± 0.18
AAAAAAAAAAAAGTTACACACAAATAAAATATTTGG [CACACA_site694] | 7.46 ± 0.3

Sequence | gcPBM binding intensity (ln)
ATTATTCATTTATGTAGTACATTTTAATACATTTAA [XGTACX_site3599] | 7.75 ± 0.6
ATAAAAAAAAATAAATGTACAAATTAACAAAATAAT [XGTACX_site5048] | 7.92 ± 0.61
AATCACCAAATATGTACACACCTTAACATGTTTATA [CACACA_site5180] | 8.14 ± 0.64
ATTTATTAAATTTATAGTACTCAAAGATTTTTATTT [XGTACX_site6661] | 7.58 ± 0.39
AAATAAAACAATTAACGTACAAGCATATATATATAT [XGTACX_site8508] | 9.43 ± 0.2
AAATAAAAAAAAATAGCACACATAAATATATTATAT [CACACA_site8155] | 8.04 ± 0.54
TATATATATATTATATGTACACAAGGAAATATGCAT [XGTACX_site5637] | 8.73 ± 0.2
TATGTATAATTATTTTGTACTTATTAAATTTTTTTT [XGTACX_site5413] | 7.43 ± 0.23
ATCTATGAAAAAGGTACATGCAATAAAGAAACATAT [TGCATGCA_site805] | 8.35 ± 0.78
TTATAATCAATGAATACACACATATATTTCATTAAT [CACACA_site5909] | 7.51 ± 0.52
TAATAATAGAGACACACACACATAGACATATAAATA [CACACA_site6729] | 7.78 ± 0.51
TTATACTATTTTTATACATGCATTTCTATATATTTT [TGCATGCA_site316] | 8.57 ± 0.82
TTCAAAATAAAAAATTCACACACATATATATATATA [CACACA_site8653] | 9.28 ± 0.39
CTAAAATACGGACACACACACACATATATATATATA [CACACA_site6138] | 9.71 ± 0.19
AAAAAAAAAAAAAACACACACACAAAAAAAAATATA [CACACA_site1104] | 8.22 ± 0.52
ATTATCTCCGCCATGTGGACACATATAAGACATTTT [XGTACX_site2889] | 8.23 ± 0.54
ATTGTATATAAATGAGTGCATACTATGTTGTTCTTA [GTGCAC_site9678] | 8.87 ± 0.25
TATGTAAATCTCTTAAGAATTCGCTATATCTCTTTT [CACACA_negctrl_site1180] | 7.3 ± 0.63
ATATAAGCGTATACATGTACATATATATCTTTGTAA [XGTACX_site2742] | 7.79 ± 0.36
AGGCTACGAATAGAATGTACCCGAAATAAGGAATAT [XGTACX_site6012] | 8.03 ± 0.72
GCAAGGAAATAATTGATAATATATATATATATATAT [GTGCAC_negctrl_site400] | 9.13 ± 0.59
GAGTAAATAAATAAATGTACATATATATATATTATC [XGTACX_site8466] | 7.75 ± 0.44
TATAATAAATATTAACGTACTCATATATATATATAT [XGTACX_site3871] | 9.25 ± 0.27

Sequence | gcPBM binding intensity (ln)
ATACATAAATATTGATGTACTCATTTAATATATTAT [XGTACX_site3992] | 7.63 ± 0.35
AATATATATATATATATATATTTTTGTTAGAATATG [XGTACX_negctrl_site58] | 8.04 ± 0.18
TTATAATATGGATACACACACATATATAAATATATA [CACACA_site5314] | 7.68 ± 0.38
AAAAAATAAATAAATACACACAAATCTATATTTATA [CACACA_site7243] | 7.35 ± 0.24
ATCTAAATTTTTCCATGTACATATACTTTTATGCAT [XGTACX_site2683] | 8.43 ± 0.59
AAAATATGTAGACACATACACACATATATATATATA [CACACA_site1221] | 9.53 ± 0.48
TATATGTATGTTTGTTTGTTTGTATTTTTTAAGGTA [XGTACX_negctrl_site619] | 7.73 ± 0.34
TTTTCTTTTTCCAAAAGTACGTAATTTAAACATTTT [XGTACX_site2066] | 7.83 ± 0.43
TTTTTTTTTTCAAATGCATGCAAAAAAAAAAAAATA [TGCATGCA_site945] | 7.87 ± 0.52
AAATTAGAAATACCTACACACTTATCAAAATAAATT [CACACA_site7132] | 7.47 ± 0.62
ATAATTATGAAGCATACATGCATGTCCTGGCTTAAA [TGCATGCA_site491] | 7.69 ± 0.73
AAATTAAATAAATTTACACACTAAAAATTACAGATA [CACACA_site4722] | 7.64 ± 0.47
CATTATGTCGTAAATACACACATACAGATACATACA [CACACA_site4880] | 7.89 ± 0.43
TTTTTATTTGGTTGTGTACACATATATATATATATA [CACACA_site5844] | 9.46 ± 0.25
AAAAAACACCCACATACACACAAAAATGTTATAAAT [CACACA_site81] | 7.86 ± 0.59
GTTATATATAATAATTGTACAAAATTAAATATAACT [XGTACX_site4189] | 7.63 ± 0.4
CTAAGAAAAAATAAAGCACACAAATATTTTAAAAAC [CACACA_site9094] | 9.475 ± 0.064
AAAACACAAAAAAAATGTACACATATATATATATAT [XGTACX_site8509] | 9.32 ± 0.12
TAACTATATTTTTACTGTACAAAAAAATTAAATAAT [XGTACX_site1765] | 7.84 ± 0.37
ATATTAATTCTACATTGTACACATGAAAAAATATAA [XGTACX_site8759] | 8.04 ± 0.3
